Measurements published in PMC4336329 (PLoS ONE, 2015).
Out of some 310,000 compounds screened, about 2,200 (0.71%) showed an effect of 50% or more. Effects have a minus sign here. Some of the results follow.

target: human ether-à-go-go-related gene (hERG) potassium channel (human, UniProt Q12809); assay: primary screen, population patch clamp on CHO cells stably expressing hERG
Sequence (Q12809 whole entry, looked up): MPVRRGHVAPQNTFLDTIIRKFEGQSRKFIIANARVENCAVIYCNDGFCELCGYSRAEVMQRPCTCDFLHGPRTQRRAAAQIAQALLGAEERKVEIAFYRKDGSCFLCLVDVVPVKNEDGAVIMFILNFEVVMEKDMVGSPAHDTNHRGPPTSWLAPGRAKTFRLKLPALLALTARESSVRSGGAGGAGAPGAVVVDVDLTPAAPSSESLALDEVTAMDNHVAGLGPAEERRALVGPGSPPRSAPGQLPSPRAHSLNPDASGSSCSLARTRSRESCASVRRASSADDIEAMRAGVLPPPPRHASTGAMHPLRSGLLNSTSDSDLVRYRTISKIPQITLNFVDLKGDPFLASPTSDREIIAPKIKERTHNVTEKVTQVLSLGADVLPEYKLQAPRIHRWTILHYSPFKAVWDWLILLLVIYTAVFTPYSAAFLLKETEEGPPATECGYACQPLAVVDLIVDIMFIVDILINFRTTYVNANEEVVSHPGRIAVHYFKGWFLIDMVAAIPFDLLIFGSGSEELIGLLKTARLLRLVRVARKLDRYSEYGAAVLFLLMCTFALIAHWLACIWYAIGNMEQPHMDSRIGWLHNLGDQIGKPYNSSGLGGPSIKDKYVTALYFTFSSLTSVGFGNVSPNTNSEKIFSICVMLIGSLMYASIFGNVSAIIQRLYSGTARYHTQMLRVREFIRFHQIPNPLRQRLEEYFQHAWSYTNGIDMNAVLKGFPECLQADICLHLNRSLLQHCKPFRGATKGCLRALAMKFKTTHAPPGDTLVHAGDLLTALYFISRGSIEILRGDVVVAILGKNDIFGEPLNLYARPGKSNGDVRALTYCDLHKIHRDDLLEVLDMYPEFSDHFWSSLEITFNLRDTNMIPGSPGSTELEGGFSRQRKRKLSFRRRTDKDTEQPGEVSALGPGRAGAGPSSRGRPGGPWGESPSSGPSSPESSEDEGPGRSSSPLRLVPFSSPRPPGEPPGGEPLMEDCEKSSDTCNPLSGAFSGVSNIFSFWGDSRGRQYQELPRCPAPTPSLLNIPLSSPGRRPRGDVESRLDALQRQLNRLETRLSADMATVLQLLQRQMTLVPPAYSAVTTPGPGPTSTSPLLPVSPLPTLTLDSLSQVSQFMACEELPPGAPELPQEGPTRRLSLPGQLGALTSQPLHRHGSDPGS

Compound | hERG current change (%, negative = inhibition) at 1uM [%]
C=CCn1c(SCC(=O)Nc2cccc3ccccc23)nc(O)c(CC)c1=O | 5.01
FC(F)(F)c1nc(-c2cccnc2)ncc1-c1nnnn1-c1ccccc1 | 5.46
Cc1cccc(CN2CCN(CC(=O)N3CCC4(CC3)OCCO4)C2=O)c1 | 25
CCn1ccnc1CN(C)Cc1cn[nH]c1-c1ccc(OC)c(F)c1 | 6.44
O=C(Nc1ccc2ccccc2c1)c1cccnc1 | 4.32
CCOC(=O)c1ccc2ncc(C(=O)OCC)c(Nc3ccc(N4CCOCC4)cc3)c2c1 | 11.8
CC1CCCN(CCCNC(=O)c2nn(C)c3c2CSc2ccccc2-3)C1 (stereo not shown) | -66.2
O=C(Nc1nc2ccc(S(=O)(=O)N3CCCC3)cc2s1)C1CCCO1 (stereo not shown) | 6.76
CN(C)c1ccc(N=Nc2ccccc2C(=O)OCC(=O)NC2CCCC2)cc1 | 7.99
O=C(NC(Cc1ccccc1)C(=O)N1CCC2(CC1)OCCO2)C1CCCCC1 (stereo not shown) | 5.75
CNS(=O)(=O)c1c(C)cc(C)c(N(C)S(=O)(=O)c2ccccc2)c1C | 7.59
O=C(COC(=O)CC(c1ccccc1)c1ccccc1)NCc1ccc(Cl)cc1 | 3.79
Cc1ccc(C(=O)NCCCNC(=O)c2ccco2)cc1 | 10.4
CC1Cc2cc(S(=O)(=O)N3CCN(c4ccccc4)CC3)ccc2N1C(=O)C1CC1 (stereo not shown) | 17.8
CCSc1nnc(NC(=O)c2nc3nc(C)cc(C)n3n2)s1 | 5.24
O=C(NCC1CCCN(Cc2cccc(OCCO)c2)C1)c1ccc(F)cc1 (stereo not shown) | 2.83
Cc1cc(C)c2[nH]c(=O)c(CN(CC3CCCO3)S(=O)(=O)c3ccc4c(c3)OCCO4)cc2c1 (stereo not shown) | 11.5
O=C(CSc1ncnc2c1oc1ccccc12)NCc1ccco1 | -0.31
Cc1nn(-c2ccc([N+](=O)[O-])cc2)c(N)c1-c1ccccc1 | 3.5
Cn1cnnc1SCc1ccc(C(=O)N/N=C/c2cccs2)cc1 | 10.6
CCC(=O)N1CCN(c2ccccc2NC(=O)c2ccc(OC)c(Cl)c2)CC1 | 0.652
CN(Cc1ccccc1)S(=O)(=O)c1ccc(S(=O)(=O)N(Cc2ccc(F)cc2)C2CCCC2)cc1 | -3.52

Compound | hERG current change (%, negative = inhibition) at 1uM [%]
COc1ccccc1-n1c(C)nc2cc(C(=O)NCC3CCCO3)ccc21 (stereo not shown) | -3.45
CCOc1cc(C(=O)NN2CCOCC2)cc(OCC)c1OCC | 19
CC1(c2cccc(Br)c2)NC(=O)N(CC(=O)Nc2cccnc2Cl)C1=O (stereo not shown) | 14.5
Cc1cc(=O)oc2cc(OCC(=O)NCCc3c[nH]c4ccc(F)cc34)ccc12 | 16.1
O=C(O)c1ccccc1NC(=O)c1ccccc1Nc1ccccc1 | 11.9
CCN(CC)c1ccc2cc(-c3nc(-c4ccc(OC)cc4)cs3)c(=O)oc2c1 | 9.74
COc1ccc(C(O)P(=O)(OC2CCCCC2)c2ccc(N(C)C)cc2)cc1OC (stereo not shown) | 3.71
Cc1ccc(NC(=O)c2ccc3c(=O)n4c(nc3c2)CCCCC4)nc1 | -27.3
O=C(/C=C\c1ccc2c(c1)OCO2)NC1(C(=O)Nc2ccc3c(c2)OCO3)CCCCC1 | 4.19
C=CCSc1nc(-c2ccccc2)c2cc(Cl)ccc2n1 | 12.8
CCCc1cc(CNC(=O)C2CCC(=O)N(CCc3cccc(F)c3)C2)on1 (stereo not shown) | 6.37
O=C(Cc1cccs1)N/N=C/C=C\c1ccccc1[N+](=O)[O-] | -3.17
O=C(NC1CCCCC1)C1CC(=O)N(c2ccccc2)C1 (stereo not shown) | 13.6
Cc1ccc(C(=O)OCC(=O)c2cc(C)n(CC3CCCO3)c2C)cc1 (stereo not shown) | 1.99
CN(C)/C=N/C(=S)Nc1ccc(Cl)cc1 | 8.96
CC1=C(Sc2nc3ccccc3[nH]2)C(=O)NC(C)(C)C1 | 4.3
CCOC(=O)c1c(C)nc2sc3c(=O)n(-c4ccc(C(C)=O)cc4)cnc3c2c1-c1ccc(OC)cc1 | 13.3
CCOC(=O)N1CCN(C(=O)c2cc(-n3cnnc3)ccc2Cl)CC1 | 1.73
CC1(CC(=O)N/N=C/c2cc(Br)c(O)cc2O)OCCO1 | 15.9
CCOc1ccc(S(=O)(=O)c2cn(C)c3cc(OC)c(OC)cc3c2=O)cc1 | 8.45
C#Cc1ccc([C@@H]2C=C(C(=O)N3CCN(Cc4ccccc4)CC3)O[C@H](OCCCCO)C2)cc1 | -4.54
COc1ccccc1C(=O)C1CCCN(C(=O)C2CCCC2)C1 (stereo not shown) | 8.68

Compound | hERG current change (%, negative = inhibition) at 1uM [%]
COc1ccc(/C=N/Nc2nc(Nc3ccccc3)nc(N3CCCCC3)n2)cc1OC | 14.1
C(=N\N1CCN(C(c2ccccc2)c2ccccc2)CC1)/c1ccc2c(c1)OCO2 | 7.82
Cc1ccccc1NS(=O)(=O)c1ccc2[nH]cc(C(=O)NCCCN3CCOCC3)c(=O)c2c1 | 6.69
CCOC(=O)CSc1nc2cc(C)ccc2cc1C#N | 5.78
COc1ccc(Cl)cc1-c1nc(SCC(=O)NC(C)C(C)C)n[nH]1 (stereo not shown) | 11.4
O=C(/C=C/c1ccc(S(=O)(=O)N2CCOCC2)cc1)NC(=S)Nc1ccc(Cl)cc1Cl | 6.34
CC(=O)Nc1ccc(NC(=O)Nc2ccccc2)cc1 | 11.4
CCC(=O)Nc1ccc(C(=O)Nc2cccnc2)cc1 | -4.71
CC(=O)NCCn1c(SCC(=O)NC2CCCCC2)nc2ccccc2c1=O | 12.8
Cc1n[nH]c(=O)nc1N/N=C/c1cccs1 | 14.8
Cc1cc(/C(N)=N/OC(=O)c2cccc(Cl)c2)no1 | 9.17
CN(C)CCOC(=O)C(c1ccccc1)C1(O)CCCC1.Cl (stereo not shown) | 19
Cc1cc(C)c(S(=O)(=O)NCC(c2ccc3c(c2)OCO3)N2CCOCC2)c(C)c1 (stereo not shown) | 10.1
CCC(C)NC(=O)c1ccc(C(=O)c2ccccc2)cc1 (stereo not shown) | 13.6
CCOC(=O)C1=C(C)OC(N)=C(C#N)C1c1ccc(OC)c(C)c1OC (stereo not shown) | -2.43
CCC(=O)N1N=C(c2ccc(C)cc2)CC1c1ccco1 (stereo not shown) | 11.9
CC1CCN(C(=O)CNC(=O)c2cccc(OC(F)F)c2)CC1 | 1.43
C#Cc1ccc([C@H]2C=C(C(=O)O)O[C@@H](OCc3ccc(CO)cc3)C2)cc1 | 15.4
O=C(CCCN1C(=O)c2ccccc2C1=O)Nc1ccccc1 | 11.7
COCc1[nH][nH]c(=O)c1C=Nc1ccc(Cl)cc1 | 12.2
O=C1CSC(c2cccc([N+](=O)[O-])c2)N1c1ccc(O)cc1 (stereo not shown) | 5.24
CCCCNC(=O)c1onc(CSc2cccc(F)c2)c1C(=O)O | 17.4

Compound | hERG current change (%, negative = inhibition) at 1uM [%]
CCOc1ccc(NC(=O)Nc2ccccc2C(N)=O)cc1 | 1.08
COc1cccc2[nH]c3c(N4CCN(Cc5ccc6c(c5)OCO6)CC4)ncnc3c12 | 7.87
Cc1cccc2cc(CN(CCN3CCCC3)C(=O)NC3CCCCC3)c(=O)[nH]c12 | -12.5
O=C(NCCc1ccccc1)C(=Cc1ccc(C(=O)O)cc1)C(=O)NCCc1ccccc1 | -1.66
COc1ccc(C(=O)N2CCN(c3nc4cc(C)ccc4cc3C#N)CC2)c(OC)c1 | 9.93
O=C1C=C(NCc2ccccc2)CCC1 | 14.3
CCOC(=O)C1CCCN(C(=O)c2[nH]c3ccc(OC)cc3c2C)C1 (stereo not shown) | 16.8
COc1ccc(C2c3ccc(O)cc3Oc3ncn(Cc4ccco4)c(=N)c32)cc1OC (stereo not shown) | -75.9
Cc1cc(Nc2ccccc2Cl)n2nnnc2n1 | 9.18
Cc1ccsc1/C=N/NC(=O)CNC(=O)c1cccc([N+](=O)[O-])c1C | 16.9
COc1cccc(CN2CC=C(c3ccc(F)cc3)CC2)c1 | 8.58
COCCNc1nc2nonc2nc1N(C)Cc1cccc2cnccc12 | 3.55
O=C(Nc1nccs1)c1ccc[nH]c1=O | 11.7
c1ccc(COc2ccc3nocc3c2)cc1 | 3.73
COc1cccc(-c2nn(-c3ccc(C)cc3)cc2C(=O)N2CCN(C3CCS(=O)(=O)C3)CC2)c1 (stereo not shown) | -10.8
CC(CNC(=O)COc1ccc2c(c1)OCO2)c1ccccc1 (stereo not shown) | 14.9
Cc1ccc(S(=O)(=O)N2CCN(C(=O)CSc3nnnn3C)CC2)c(C)c1 | 26.3
OCc1c(OCc2cccc(F)c2)ccc2ccccc12 | 17
O=C(NC1CC1)c1sc2cc(F)ccc2c1Cl | 13.1
CC1Oc2ccccc2N(Cc2cccnc2)C1=O (stereo not shown) | 4.85
CC(=O)c1ccccc1OCc1ccc(C(=O)c2ccccc2)cc1 | 11.5
CCOC(=O)c1c(C)[nH]c(C(=O)COC(=O)CNC(=O)c2ccc(Cl)cc2)c1C | 16
